{"source": "patent US8492589B2", "about": "“Alkynyl phenyl derivative compounds for treating ophthalmic diseases and disorders” (Acucela Inc., priority 2007, dated 2013)", "note": "Some entries share one result that the patent states for a list of compounds."}
{"target": "T1, recombinant human RPE65 and LRAT (Homo sapiens, UniProt Q16518)", "T1 construct": "expressed in transfected cells; host or cells: HEK293 cell clone (homogenate); CRALBP was made in E. coli TOP10", "T1 sequence (Q16518 2-533 limits assumed)": "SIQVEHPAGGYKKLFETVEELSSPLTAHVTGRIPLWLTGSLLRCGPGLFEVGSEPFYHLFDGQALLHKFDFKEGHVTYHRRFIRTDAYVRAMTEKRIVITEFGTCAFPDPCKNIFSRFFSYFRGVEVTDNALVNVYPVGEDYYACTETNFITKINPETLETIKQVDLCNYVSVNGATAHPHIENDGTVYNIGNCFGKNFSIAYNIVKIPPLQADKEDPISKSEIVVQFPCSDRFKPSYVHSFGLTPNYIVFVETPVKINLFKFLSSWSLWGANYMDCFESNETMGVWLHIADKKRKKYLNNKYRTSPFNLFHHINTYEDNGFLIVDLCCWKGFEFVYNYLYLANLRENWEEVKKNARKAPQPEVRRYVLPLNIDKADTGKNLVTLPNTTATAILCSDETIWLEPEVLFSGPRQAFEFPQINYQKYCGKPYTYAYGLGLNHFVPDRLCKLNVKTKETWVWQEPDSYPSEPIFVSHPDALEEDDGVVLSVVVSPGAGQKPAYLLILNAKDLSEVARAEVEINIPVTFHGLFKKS", "test": "In vitro isomerase inhibition assay, recombinant human enzyme system (HEK293 homogenate)", "assay_type": "biochemical", "conditions": "homogenate of HEK293 cells expressing recombinant human RPE65 and LRAT; 11-cis-retinol formation", "description": "The concentration dependent effect of the compounds disclosed herein on the retinol isomerization reaction can also be evaluated with a recombinant human enzyme system. […] A homogenate of HEK293 cell clone expressing recombinant human RPE65 and LRAT were the source of the visual enzymes, and exogenous all-trans-retinol (about 20 μM) was used as the substrate. Recombinant human CRALBP (about 80 ug/mL) was added to enhance the formation of 11-cis-retinal. The 200 μL Bis-Tris Phosphate buffer (10 mM, pH 7.2) based reaction mixture also contains 0.5% BSA, and 1 mM NaPPi. In this assay, the reaction was carried out at 37° C. in duplicates for one hour and was terminated by addition of 300 μL methanol. The amount of reaction product, 11-cis-retinol, was measured by HPLC analysis following Heptane extraction of the reaction mixture. […] The ability of the numerous compounds disclosed herein to inhibit isomerization reaction is quantified and the respective IC50 value is determined. The tables below summarises the IC50 values of various compounds of the present invention determined by either of the above two methods. FIG. 1 is a representative figure of the IC50 determination of the compound of Example 2."}
{"smiles": "CCCC(O)(C#Cc1cccc([C@H](O)CCN)c1)CCC", "note": "[Compound 100, (R)-4-((3-(3-Amino-1-Hydroxypropyl)Phenyl)Ethynyl)Heptan-4-ol]", "IC50 (μM), Human in vitro Inhibition Data": "≦0.01 μM"}
{"smiles": "CCCC(O)(C#Cc1cccc([C@@H](O)CCN)c1)CCC", "note": "[Compound 101, (S)-4-((3-(3-Amino-1-Hydroxypropyl)Phenyl)Ethynyl)Heptan-4-ol]", "IC50 (μM), Human in vitro Inhibition Data": "≦0.01 μM"}
{"smiles": "CCC(O)(C#Cc1cccc(CCCN)c1)CC", "note": "[Example 1, 1-(3-(3-Aminopropyl)phenyl)-3-ethylpent-1-yn-3-ol]", "IC50 (μM), Human in vitro Inhibition Data": "≦0.01 μM"}
{"smiles": "CCCC(O)(C#Cc1cccc(CCCN)c1)CCC", "note": "[Example 2, 4-((3-(3-Aminopropyl)phenyl)ethynyl)heptan-4-ol]", "IC50 (μM), Human in vitro Inhibition Data": "≦0.01 μM"}
{"smiles": "CCCCC(O)(C#Cc1cccc(CCCN)c1)CCCC", "note": "[Example 3, 5-((3-(3-Aminopropyl)phenyl)ethynyl)nonan-5-ol]", "IC50 (μM), Human in vitro Inhibition Data": "≦0.01 μM"}
{"smiles": "CCCC(C#Cc1cccc(CCCN)c1)(CCC)OC", "note": "[Example 4, 3-(3-(3-Methoxy-3-propylhex-1-ynyl)phenyl)propan-1-amine]", "IC50 (μM), Human in vitro Inhibition Data": "≦0.01 μM"}
{"smiles": "CCCC(C)(O)C#Cc1cccc(CCCN)c1", "note": "(stereo not drawn) [Example 5, 1-(3-(3-Aminopropyl)phenyl)-3-methylhex-1-yn-3-ol]", "IC50 (μM), Human in vitro Inhibition Data": "≦0.01 μM"}
{"smiles": "CC(C)CC(C)(O)C#Cc1cccc(CCCN)c1", "note": "(stereo not drawn) [Example 6, 1-(3-(3-Aminopropyl)phenyl)-3,5-dimethylhex-1-yn-3-ol]", "IC50 (μM), Human in vitro Inhibition Data": "≦0.01 μM"}
{"smiles": "NCCCc1cccc(C#CC2(O)CCCCC2)c1", "note": "[Example 11, 1-((3-(3-Aminopropyl)phenyl)ethynyl)cyclohexanol]", "IC50 (μM), Human in vitro Inhibition Data": "≦0.01 μM"}
{"smiles": "CC(C)(C)C(O)(C#Cc1cccc(CCCN)c1)C(C)(C)C", "note": "[Example 12, 1-(3-(3-Aminopropyl)phenyl)-3-tert-butyl-4,4-dimethylpent-1-yn-3-ol]", "IC50 (μM), Human in vitro Inhibition Data": "≦1 μM"}
{"smiles": "CCCC(O)(C#Cc1cccc(OCCN)c1)CCC", "note": "[Example 18, 4-((3-(2-Aminoethoxy)phenyl)ethynyl)heptan-4-ol]", "IC50 (μM), Human in vitro Inhibition Data": "≦0.01 μM"}
{"smiles": "CCCC(O)(C#Cc1cccc(C(O)CCN)c1)CCC", "note": "(stereo not drawn) [Example 19, 4-((3-(3-Amino-1-hydroxypropyl)phenyl)ethynyl)heptan-4-ol]", "IC50 (μM), Human in vitro Inhibition Data": "≦0.01 μM"}
{"smiles": "CC(C)C(C)(O)C#Cc1cccc(CCCN)c1", "note": "(stereo not drawn) [Example 21, 1-(3-(3-Aminopropyl)phenyl)-3,4-dimethylpent-1-yn-3-ol]", "IC50 (μM), Human in vitro Inhibition Data": "≦0.01 μM"}
{"smiles": "CC(O)(C#Cc1cccc(CCCN)c1)c1ccccc1", "note": "(stereo not drawn) [Example 22, 4-(3-(3-Aminopropyl)Phenyl)-2-Phenylbut-3-Yn-2-ol]", "IC50 (μM), Human in vitro Inhibition Data": "≦0.01 μM"}
{"smiles": "NCCCc1cccc(C#CC2(O)CCCC2)c1", "note": "[Example 24, 1-((3-(3-Aminopropyl)phenyl)ethynyl)cyclopentanol]", "IC50 (μM), Human in vitro Inhibition Data": "≦0.01 μM"}
{"smiles": "CC(C)(C)C(C)(O)C#Cc1cccc(CCCN)c1", "note": "(stereo not drawn) [Example 25, 1-(3-(3-Aminopropyl)phenyl)-3,4,4-trimethylpent-1-yn-3-ol]", "IC50 (μM), Human in vitro Inhibition Data": "≦0.01 μM"}
{"smiles": "NCCCc1cccc(C#C[C@@H](O)c2ccccc2)c1", "note": "[Example 26, (S)-3-(3-(3-Aminopropyl)phenyl)-1-phenylprop-2-yn-1-ol]", "IC50 (μM), Human in vitro Inhibition Data": "≦1 μM"}
{"smiles": "CCC(O)(C#Cc1cccc(OCCN)c1)CC", "note": "[Example 27, 1-(3-(2-Aminoethoxy)phenyl)-3-ethylpent-1-yn-3-ol]", "IC50 (μM), Human in vitro Inhibition Data": "≦0.01 μM"}
{"smiles": "NCCOc1cccc(C#CC2(O)CCCC2)c1", "note": "[Example 31, 1-((3-(2-Aminoethoxy)phenyl)ethynyl)cyclopentanol]", "IC50 (μM), Human in vitro Inhibition Data": "≦0.01 μM"}
{"smiles": "CC(C)C(O)(C#Cc1cccc(CCCN)c1)C(C)C", "note": "[Example 32, 1-(3-(3-Aminopropyl)phenyl)-3-isopropyl-4-methylpent-1-yn-3-ol]", "IC50 (μM), Human in vitro Inhibition Data": "≦0.01 μM"}
{"smiles": "CC(C)CC(O)(C#Cc1cccc(CCCN)c1)CC(C)C", "note": "[Example 33, 4-((3-(3-Aminopropyl)phenyl)ethynyl)-2,6-dimethylheptan-4-ol]", "IC50 (μM), Human in vitro Inhibition Data": "≦1 μM"}
{"smiles": "COc1ccccc1C#Cc1cccc(CCCN)c1", "note": "[Example 36, 3-(3-((2-Methoxyphenyl)Ethynyl)Phenyl)Propan-1-Amine]", "IC50 (μM), Human in vitro Inhibition Data": "≦0.01 μM"}
{"smiles": "NCCCc1cccc(C#Cc2ccccc2)c1", "note": "[Example 37, 3-(3-(Phenylethynyl)phenyl)propan-1-amine]", "IC50 (μM), Human in vitro Inhibition Data": "≦0.01 μM"}
{"smiles": "NCCCc1cccc(C#CC2CCCC2)c1", "note": "[Example 38, 3-(3-(Cyclopentylethynyl)phenyl)propan-1-amine]", "IC50 (μM), Human in vitro Inhibition Data": "≦0.01 μM"}
{"smiles": "NCCCc1cccc(C#CCC2CCCC2)c1", "note": "[Example 39, 3-(3-(3-Cyclopentylprop-1-ynyl)phenyl)propan-1-amine]", "IC50 (μM), Human in vitro Inhibition Data": "≦0.01 μM"}
{"smiles": "NCCCc1cccc(C#CC2CCCCC2)c1", "note": "[Example 41, 3-(3-(Cyclohexylethynyl)phenyl)propan-1-amine]", "IC50 (μM), Human in vitro Inhibition Data": "≦1 μM"}
{"smiles": "NCCC(O)c1cccc(C#CC2CCCC2)c1", "note": "(stereo not drawn) [Example 47, 3-Amino-1-(3-(cyclopentylethynyl)phenyl)propan-1-ol]", "IC50 (μM), Human in vitro Inhibition Data": "≦0.01 μM"}
{"smiles": "NCCC(O)c1cccc(C#CC2CCCCC2)c1", "note": "(stereo not drawn) [Example 52, 3-Amino-1-(3-(Cyclohexylethynyl)Phenyl)Propan-1-ol]", "IC50 (μM), Human in vitro Inhibition Data": "≦0.01 μM"}
{"smiles": "NCCOc1cccc(C#CC2(O)CCCCC2)c1", "note": "[Example 57, 1-((3-(2-Aminoethoxy)phenyl)ethynyl)cyclohexanol]", "IC50 (μM), Human in vitro Inhibition Data": "≦0.01 μM"}
{"smiles": "NCCCc1cccc(C#CC2(O)CCCCCC2)c1", "note": "[Example 58, 1-((3-(3-Aminopropyl)phenyl)ethynyl)cycloheptanol]", "IC50 (μM), Human in vitro Inhibition Data": "≦1 μM"}
{"smiles": "NCCC(O)c1cccc(C#CC2(O)CCCCCC2)c1", "note": "(stereo not drawn) [Example 59, 1-((3-(3-Amino-1-hydroxypropyl)phenyl)ethynyl)cycloheptanol]", "IC50 (μM), Human in vitro Inhibition Data": "≦0.01 μM"}
{"smiles": "NCCC(O)c1cccc(C#CCCc2ccccc2)c1", "note": "(stereo not drawn) [Example 69, 3-Amino-1-(3-(4-phenylbut-1-ynyl)phenyl)propan-1-ol]", "IC50 (μM), Human in vitro Inhibition Data": "≦0.01 μM"}
{"smiles": "NCCOc1cccc(C#CC2(O)CCCCCC2)c1", "note": "[Example 78, 1-((3-(2-aminoethoxy)phenyl)ethynyl)-cycloheptanol]", "IC50 (μM), Human in vitro Inhibition Data": "≦0.01 μM"}
{"smiles": "NCCOc1cccc(C#CC2CCCC2)c1", "note": "[Example 79, 2-(3-(Cyclopentylethynyl)phenoxy)-ethanamine]", "IC50 (μM), Human in vitro Inhibition Data": "≦1 μM"}
{"smiles": "NCCOc1cccc(C#CC2CCCCC2)c1", "note": "[Example 80, 2-(3-(Cyclohexylethynyl)phenoxy)ethanamine]", "IC50 (μM), Human in vitro Inhibition Data": "≦0.01 μM"}
{"smiles": "NCCOc1cccc(C#Cc2ccccc2)c1", "note": "[Example 81, 2-(3-(Phenylethynyl)phenoxy)-ethanamine]", "IC50 (μM), Human in vitro Inhibition Data": "≦10 μM"}
{"smiles": "NCCCc1cccc(C#Cc2ccccc2O)c1", "note": "[Example 89, 2-((3-(3-Aminopropyl)phenyl)ethynyl)phenol]", "IC50 (μM), Human in vitro Inhibition Data": "≦1 μM"}
{"smiles": "NCCC(O)c1cccc(C#CC2(O)CCCCC2)c1", "note": "(stereo not drawn) [Example 99, 1-((3-(3-Amino-1-hydroxypropyl)phenyl)ethynyl)cyclohexanol]", "IC50 (μM), Human in vitro Inhibition Data": "≦0.01 μM"}
{"smiles": "NCCCc1cccc(C#CC2CCCCCC2)c1", "note": "[Example 105, 3-(3-(Cycloheptylethynyl)phenyl)propan-1-amine]", "IC50 (μM), Human in vitro Inhibition Data": "≦1 μM"}
{"smiles": "NCCOc1cccc(C#CC2CCCCCC2)c1", "note": "[Example 106, 2-(3-(Cycloheptylethynyl)phenoxy)ethanamine]", "IC50 (μM), Human in vitro Inhibition Data": "≦1 μM"}
{"smiles": "COCC#Cc1cccc(C(O)CCN)c1", "note": "(stereo not drawn) [Example 107, 3-Amino-1-(3-(3-methoxyprop-1-ynyl)phenyl)propan-1-ol]", "IC50 (μM), Human in vitro Inhibition Data": "≦0.01 μM"}
{"smiles": "CCCCC#Cc1cccc(C(O)CCN)c1", "note": "(stereo not drawn) [Example 108, 3-Amino-1-(3-(hex-1-ynyl)phenyl)propan-1-ol]", "IC50 (μM), Human in vitro Inhibition Data": "≦0.01 μM"}
{"smiles": "CCCC(O)(C#Cc1cccc(CC(O)CN)c1)CCC", "note": "(stereo not drawn) [Example 109, 4-((3-(3-Amino-2-hydroxypropyl)phenyl)ethynyl)heptan-4-ol]", "IC50 (μM), Human in vitro Inhibition Data": "≦0.01 μM"}
{"smiles": "NCC(O)Cc1cccc(C#CC2(O)CCCCC2)c1", "note": "(stereo not drawn) [Example 110, 1-((3-(3-Amino-2-hydroxypropyl)phenyl)ethynyl)cyclohexanol]", "IC50 (μM), Human in vitro Inhibition Data": "≦0.01 μM"}
{"smiles": "CCC(O)(C#Cc1cccc(CC(O)CN)c1)CC", "note": "(stereo not drawn) [Example 111, 1-(3-(3-Amino-2-hydroxypropyl)phenyl)-3-ethylpent-1-yn-3-ol]", "IC50 (μM), Human in vitro Inhibition Data": "≦0.01 μM"}
